Data from the supplement of paper PMC4166925.
± gives the standard deviation of the averaged measurements. Whole data set: some 33,000 sequences, median “E-score (dimensionless, -0.5 to 0.5)” near -0.046, cut for the highest 2% near 0.36. Some of the results follow.

test system: T1, SpTbr T-box DNA-binding domain (GST fusion); test: PBM E-score of 8-mer (E-score (dimensionless, -0.5 to 0.5)); Tbr is Tbrain of the sea star Patiria miniata (Pm) or the sea urchin Strongylocentrotus purpuratus (Sp); higher = stronger binding preference; most listed sequences are background and not binding sites; details: the construct has about 5 more residues each side
T1 sequence: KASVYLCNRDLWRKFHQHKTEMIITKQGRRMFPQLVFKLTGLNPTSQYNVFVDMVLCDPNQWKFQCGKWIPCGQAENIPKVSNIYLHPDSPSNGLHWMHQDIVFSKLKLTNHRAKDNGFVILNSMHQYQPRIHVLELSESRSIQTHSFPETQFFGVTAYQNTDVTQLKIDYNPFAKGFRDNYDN
Summary of the method: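 Primer extension turned Universal Agilent oligonucleotide arrays double-stranded. They were incubated with 200 nM protein in PBS (pH 7.5); the protein was a GST-fused Tbr T-box DNA-binding domain expressed in BL21 E. coli at 20 °C and purified on glutathione. Every ungapped 8-mer was scored from the scanned, quantified probe intensities, and the Universal PBM Analysis Suite gave each an enrichment E-score averaged over duplicate arrays.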

Sequence	PBM E-score of 8-mer
CTATCCTA	-0.171 ± 0.0083
ATGGTTAG	0.0545 ± 0.053
CTCCACAC	0.37 ± 0.0083
GCAAATCC	-0.203 ± 0.038
AGCATCCA	-0.228 ± 0.072
CTGCAAAG	0.0277 ± 0.049
GGGGAGCA	-0.25 ± 0.0084
AACCGGAG	0.0115 ± 0.044
GCCGCCAC	0.249 ± 0.035
TAAGCGGA	-0.0158 ± 0.095
CGTTAGCC	0.0205 ± 0.017
CCCAACCC	-0.144 ± 0.069
CAGAACTA	-0.256 ± 0.026
ACGCCACT	0.285 ± 0.013
AGCTACCG	-0.0774 ± 0.044
AGTGTACG	0.0187 ± 0.04
ATCCAATA	-0.229 ± 0.046
CCGTTCTC	0.129 ± 0.027
AAATAGGA	-0.278 ± 0.04
AACTGCTG	0.117 ± 0.037
AGAGGGTA	-0.113 ± 0.012
CGCAGCCG	0.023 ± 0.017

Sequence	PBM E-score of 8-mer
GATAATTA	0.14 ± 0.063
CACTGACG	0.247 ± 0.027
CGCTCAAA	0.00388 ± 0.065
GTCACAAA	0.125 ± 0.032
AATTCTCT	-0.273 ± 0.058
CCCCGGAG	-0.296 ± 0.069
CAGTTTGA	-0.0119 ± 0.00066
GCCGCTCC	-0.197 ± 0.066
ACACCTGT	0.4669 ± 0.0038
CGCTGCAA	0.0092 ± 0.027
AAGGCGCT	0.306 ± 0.035
CGCTGACG	0.15 ± 0.0052
TATGTGCA	-0.0789 ± 0.074
TATAAACA	0.012 ± 0.057
GTCTGCCA	-0.0807 ± 0.028
ACGAAACA	0.0313 ± 0.035
GTCTCCGA	-0.198 ± 0.069
ACTGGCCA	0.0049 ± 0.016
AAATTAAA	-0.26 ± 0.096
AATCTGCC	-0.194 ± 0.023
GCATCAGA	-0.28455 ± 7.1e-05
GTACCCTA	-0.032 ± 0.028

Sequence	PBM E-score of 8-mer
AACGTCTT	-0.0988 ± 0.032
AATTGGCT	-0.157 ± 0.0044
CGTTTAAC	0.0414 ± 0.039
ACTAAACT	-0.241 ± 0.017
CGAGCTAG	0.0147 ± 0.082
ATGACAAA	-0.0554 ± 0.028
CCTGAGAG	0.182 ± 0.052
AAGCCACC	-0.196 ± 0.066
ACCCGTTC	0.0673 ± 0.036
ATCGCGAC	0.271 ± 0.036
AGTTCGCA	0.3728 ± 0.00053
AACCGCAT	-0.168 ± 0.022
CCCAACGG	-0.055 ± 0.1
ATCTAACC	-0.0868 ± 0.043
AGAGGACA	0.0332 ± 0.0054
CGAAGGCG	0.27349 ± 5.7e-05
GTGTCATA	0.404 ± 0.022
GACAGGCC	-0.1 ± 0.072
GCGGCAGA	-0.0967 ± 0.032
CGAAAGGC	-0.0702 ± 0.065
AAAATTGA	-0.0654 ± 0.052
AGTTTGCC	-0.04 ± 0.0086

Sequence	PBM E-score of 8-mer
CCCTACCA	-0.0683 ± 0.08
TGGTCTAA	-0.0415 ± 0.1
CTACTGTA	-0.111 ± 0.05
CCGAGCCC	-0.184 ± 0.087
CGCCGGTC	0.0265 ± 0.055
ATAGTTAA	0.0934 ± 0.035
GATTGTGA	0.198 ± 0.013
GACAGCTC	0.274 ± 0.021
GTTGAGCA	-0.137 ± 0.031
GAAAGGAC	-0.0836 ± 0.079
CGAAGCGC	0.0491 ± 0.058
TACTCTCA	0.002 ± 0.057
GGGACATA	-0.113 ± 0.021
CCTTGTCG	0.115 ± 0.099
ATCTCATG	0.015 ± 0.0085
AGGGCTCC	-0.314 ± 0.073
AACTCAAG	-0.116 ± 0.075
AGTTGGTA	-0.108 ± 0.069
ACTTGGCG	0.22 ± 0.038
GCGACCCC	0.114 ± 0.0081
